According to PubChem BioAssay AID1159614 (National Center for Advancing Translational Sciences (NCATS), 2016):
The campaign covered roughly 45,000 compounds. About 65 (0.1%) were called active. Calls come from the whole dose curve; as a rule, active = well fitted activation curve with a large enough effect; inconclusive = small, poorly fitted or top-dose-only effect; inactive = no such curve, though single readings can be large or run the other way. The list shows a part of the results.

What follows are compounds tested against Galactocerebrosidase (Homo sapiens) (UniProt P54803) (assay: A Novel Cell-Based Assay to Identify Small Molecules for B -Galactocerebrosidase). Details: 145M-Twi-hGALC-G270D cells (Twitcher mouse brain line with human GALC G270D), HMU-beta-Gal fluorescence, 48 h; series mostly up to 57.5 µM; activation: at the top concentration.
Chain of UniProt P54803 (P54803 whole entry, looked up): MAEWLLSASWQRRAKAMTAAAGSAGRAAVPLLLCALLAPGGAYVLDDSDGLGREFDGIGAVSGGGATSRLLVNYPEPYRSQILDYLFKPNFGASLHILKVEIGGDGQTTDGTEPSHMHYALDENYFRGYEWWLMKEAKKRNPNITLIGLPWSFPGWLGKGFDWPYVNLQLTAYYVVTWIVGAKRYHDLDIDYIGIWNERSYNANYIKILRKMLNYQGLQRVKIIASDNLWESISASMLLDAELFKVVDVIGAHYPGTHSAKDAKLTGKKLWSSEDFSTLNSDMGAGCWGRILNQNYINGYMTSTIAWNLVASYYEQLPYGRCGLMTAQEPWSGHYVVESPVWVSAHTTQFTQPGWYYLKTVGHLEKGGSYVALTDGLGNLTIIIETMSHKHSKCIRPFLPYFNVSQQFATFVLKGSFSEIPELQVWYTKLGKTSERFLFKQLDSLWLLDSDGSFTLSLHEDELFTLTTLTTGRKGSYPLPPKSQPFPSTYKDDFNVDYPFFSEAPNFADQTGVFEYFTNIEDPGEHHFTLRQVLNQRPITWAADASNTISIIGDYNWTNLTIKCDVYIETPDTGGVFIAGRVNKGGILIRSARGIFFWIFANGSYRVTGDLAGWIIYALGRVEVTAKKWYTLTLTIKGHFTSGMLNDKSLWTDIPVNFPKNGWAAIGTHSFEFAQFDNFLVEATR
Summary of the method: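 Mutant human GALC (G270D), stably expressed in a Twitcher mouse brain cell line lacking endogenous GALC, is measured in live-treated cells via 6-hexadecanoylamino-4-methylumbelliferyl-β-galactoside hydrolysis (0.1 mM final, pH 5.2) with fluorescent detection.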
Note: 0% is about no effect; nearly all actives have a fitted effect of over 65% in size.

activation, inactive:
COc1ccc(C2C=C(c3ccccc3)Nc3nc(NC(=O)/C=C/c4ccc(Cl)cc4)nn32)cc1 (configuration not stated) -11.3%, Cc1cccc(NC(=O)c2c(C)oc3ncnc(N4CCCCC4)c23)c1C -10.6%, CCCCc1nn2c(=O)cc(COC(=O)c3ccccc3NC(=O)c3cccc(C)c3)nc2s1 0.137%, Cc1noc(C)c1S(=O)(=O)NCCc1csc2nc(-c3ccc(Cl)cc3)nn12 -17.5%, O=C(COc1ccc(F)cc1)Nc1ccc(Cl)c(-c2nc3ccccc3[nH]2)c1 -8.9%, COc1ccccc1-c1nnc(C2CCN(S(=O)(=O)c3ccc(F)c(C)c3)CC2)o1 -10.5%, CCOC(=O)c1c(NC(=O)COc2ccc(Br)cc2)sc(C(C)=O)c1C -18.2%, CCOC(=O)N1CCN(C(=O)Cn2ncc3c4ccccc4n(Cc4ccc(F)cc4)c3c2=O)CC1 -7.04%, CCOc1ccc(C(=O)c2c(N)c(-c3nc(-c4ccc(OCC)cc4)cs3)c3ccccn23)cc1 -12.8%, Cc1ccc(C(=O)NCC(c2cccnc2)N2CCc3ccccc3C2)cc1C (configuration not stated) -15%, Cc1ccc(Cl)cc1NS(=O)(=O)c1ccc(N2CCCCS2(=O)=O)cc1 -2.18%, Cc1nc(-c2ccc(F)cc2)sc1CCNC(=O)c1ccc(C(C)(C)C)cc1 -7.84%, COc1ccc2nc(NC(=O)c3cc(=O)c4cc(C)c(C)cc4o3)sc2c1 -12.1%, Cc1ccc(NC(=O)Cn2c(=O)n(Cc3ccccc3)c(=O)c3c2c2cc(C)ccc2n3C)cc1 -14.7%, CC(=O)Nc1cccc(-c2cn3cccnc3n2)c1 -20.8%, CCOC(=O)CSc1nc2c(sc3ccccc32)c(=O)n1Cc1ccc(OC)cc1 -10.8%, Cc1cccc(NC(=O)c2sc(-n3nc(C)c(CCC(C)C)c3C)nc2C)c1 -12.4%, Cc1ccc2c(c1)N(C(=O)N1CCC(C(=O)NCc3ccccc3F)CC1)CC(C)O2 (configuration not stated) -23%, Nc1c(C(=O)c2ccccc2)sc(Nc2ccc(Cl)c(Cl)c2)c1C(=O)Nc1ccccc1 3.65%, Cc1cc(-n2nc3ccc(Cl)cc3n2)c(O)c(C(C)(C)C)c1 -11.4%, CCOc1ccc(NC(=O)CCSc2nc(-c3ccc4c(c3)OCO4)cc(C(F)(F)F)n2)cc1 -16.3%, COc1ccc(-n2c3c(cc(-c4nc(-c5ccc(Cl)cc5)cs4)c2=O)C(=O)CC(C)(C)C3)cc1Cl -9.47%, COc1ccc(-c2cn3c(n2)sc2cc(C(=O)Nc4ccc(C)cc4C)ccc23)cc1 -13.7%, O=S(=O)(c1ccccc1)c1nc(-c2ccccc2F)oc1N1CCOCC1 -18.2%, COc1ccc(OC)c(NC(=O)N2CCN(Cc3nc4ccc(C)cc4o3)CC2)c1 3.69%, COc1cc2ccccc2cc1C(=O)Nc1ccc2oc(-c3cccc(C)c3)nc2c1 9.59%, CN(C(=O)Cn1nnc(-c2ccc(S(C)(=O)=O)cc2)n1)c1ccccc1 -13.3%, O=C1NC(c2ccccc2)(c2ccccc2)C(=O)N1COP(=O)(O)O -16.3%, Cc1ccccc1NCc1nc2ccccc2n1CCOc1ccccc1 -10.1%, CCN1C(=O)c2ccccc2Sc2ccc(NC(=O)c3ccc(C#N)cc3)cc21 -17.2%, O[C@@H]1CO[C@H]2[C@@H]1OC[C@@H]2O -15.1%, COc1ccc(NC(=O)CSc2oc(-c3ccco3)nc2S(=O)(=O)c2ccccc2)c(OC)c1 -9.78%, COc1ccc(C(=O)Nc2nc3c(s2)Cc2cc(OC)ccc2-3)cc1 -8.32%, Cc1c(C(=O)N(C)C)sc2c1c(=O)n(-c1ccccc1C(F)(F)F)c(=O)n2Cc1cccc(F)c1 -12%, CCCCCn1c(=O)c2c(nc3n2CCN3c2ccc(Br)cc2)n(C)c1=O -8.5%, COc1cc(C)ccc1OCCSc1nc2ccc(NC(C)=O)cc2s1 -30.9%, CCOC(=O)c1ccc(NC(=O)Cn2cnc3sc(C(=O)OCC)c(C)c3c2=O)cc1 -6.93%, CCc1ccc(NC(=O)CSc2nc3c([nH]c4ccccc43)c(=O)n2-c2cccc(OC)c2)cc1 -7.26%, CCC(Sc1nnc2c3ccccc3n(C)c2n1)C(=O)Nc1nnc(C(C)C)s1 (configuration not stated) -15.6%, CCOc1ccc(NC(=O)CSc2nc(=O)[nH]c3c2CCC3)cc1 -7%, COC(=O)COc1ccc(Oc2nc(NC(C)(C)C)nc(N(C)C)n2)nn1 -10.7%, Cc1cc(F)ccc1NC(=O)CCSc1nc(-c2ccco2)cc(C(F)(F)F)n1 -14.2%, Cc1ccc(C)c(CNC(=O)c2sc3ncnc(N(C)C4CCCCC4)c3c2C)c1 0.587%, COc1ccc(-c2cc3ccc(O)c(CN4CCCC4)c3oc2=O)cc1OC -28.2%, CCC1CN(C(=O)N2CCC(C(=O)N3CCN(c4cc(C)ccc4C)CC3)CC2)c2ccccc2O1 (configuration not stated) -14.5%, CCn1c(CC2C(=O)N(C)c3ccc(Br)cc32)nc2ccccc2c1=O (configuration not stated) -26.8%, CC(=O)Nc1ccc(Nc2ncnc3sc4c(c23)CCCC4)cc1 -11.4%, CCc1cc2c(cc3c(=O)n(CC(=O)NCCOC)nc(CC)n32)s1 -7.53%, Cc1ccc2nc(N(Cc3cccnc3)C(=O)CCOc3ccccc3)sc2c1 -5.22%, Cc1cccc(C(=O)N2CCc3cc(CNS(=O)(=O)c4cccs4)ccc32)c1 -3.5%, COc1ccc(CNC(=O)c2cn(-c3cccc(OC)c3)c(=O)c3ccccc23)cc1 -10.7%, Cc1ccc(C(=O)NC2(C(F)(F)F)N=C(c3ccccc3)N(C3CCCCC3)C2=O)cc1 (configuration not stated) -11.5%, COc1ccc(C(=O)NCC(c2ccc3c(c2)OCO3)N2CCOCC2)cc1OC (configuration not stated) -5.94%, CCOC(=O)c1c(C)c(-c2ccccc2)n(CC(=O)Nc2cccc(C)c2C)c1C -18.8%, COc1ccc(OC)c(NC(=O)c2c(C)oc3ncnc(N4CCOCC4)c23)c1 -2.68%, CC1CCN(C(=O)C(C)Sc2nc(-c3ccccc3)cc(C(F)(F)F)n2)CC1 (configuration not stated) -14.3%, O=C(Cn1c(=O)n2nc(-c3cccc(F)c3)nc2c2ccccc21)N1CCN(c2ccccc2F)CC1 -3.16%, O=C(c1cccc(Cl)c1)N1CCC(c2nc3ccccc3o2)CC1 -17.9%, O=C(O)c1ccc(C2Nc3ccccc3-c3nnc(SCc4ccc(Cl)cc4)nc3O2)cc1 (configuration not stated) -20.1%, CCCN1C(=O)C2(c3ccccc31)c1c(oc3ccccc3c1=O)C(=O)N2CCCOC(C)C (configuration not stated) -8.08%, Cc1cccc(-c2nc(SCC(=O)N(C)c3ccccc3)c3c(=O)n(C)c(=O)n(C)c3n2)c1 -5.85%, O=C(c1ccco1)N1CCN(C(=O)c2cnn(-c3cccc(F)c3)c2C2CCNCC2)CC1 -8.7%, COc1ccccc1OCc1nc(-c2cccc(C)c2)no1 -16.9%, Cn1c(=O)cc(SCC(=O)N2CCN(c3ccccc3)CC2)c2ccccc21 -20.5%, COc1cccc(C(=O)Nc2ccc(C(=O)OCc3cc(=O)n4nc(C5CC5)sc4n3)cc2)c1 -12%, COc1cc(OC)c(NC(=O)N2CC=C(c3c[nH]c4ccccc34)CC2)cc1Cl -13.2%, CCOC(=O)C1CCN(C(=O)c2ccc3c(c2)N=C(CC)c2cc(C)ccc2S3)CC1 0.209%, Cc1ccc(-c2cc(C(F)(F)F)n3ncc(-c4ccc(Cl)cc4)c3n2)cc1 -18.3%, CC(Sc1nc2c([nH]c3ccccc32)c(=O)n1-c1ccccc1)c1ccccc1 (configuration not stated) -0.854%, CCC(=O)N1CCc2cc(S(=O)(=O)CCC(=O)NCc3ccc(OC)cc3)ccc21 5.15%, O=C(CSc1nc2c(cnn2-c2ccc(F)cc2)c(=O)[nH]1)Nc1ccccc1C(F)(F)F -13.2%, COc1ccccc1N1CCN(C(=O)c2cc3c(=O)oc4ccccc4c3s2)CC1 -5.35%, COc1ccccc1NC(=O)C1=C(C)Nc2nc(SCc3cccc(F)c3)nn2C1c1ccc(C(=O)O)cc1 (configuration not stated) -17.2%, COc1cccc(CNC(=O)c2cc3ccc4cccnc4c3[nH]2)c1 1.74%, Cc1ccc(C)c(NC(=O)Cn2c(=O)n(-c3ccc(CC(=O)NCC4CCCO4)cc3)c(=O)c3ccccc32)c1 (configuration not stated) -9.03%, Cc1ccc(OCC(=O)NCC2(N(C)C)CCCCC2)cc1C -15.2%, CCCCC(CC)COC(=O)c1ccccc1O (configuration not stated) -2.46%, O=C(CCN1CCN2CCCC2C1)N1c2ccccc2Sc2ccc(Cl)cc21 (configuration not stated) -12.5% [at 23.8 µM], C[C@@H](C1=C(CCN(C)C)Cc2ccccc21)c1ccccn1 -15.5%, CC1CN(C(=O)CCC(=O)Nc2cc(F)ccc2F)c2ccccc2S1 (configuration not stated) -15.6%, O=C(O)c1c(O)c(-c2ccccc2)nc2ccccc12 -13.8%, Cc1ccc(CNc2oc(-c3ccc(COc4ccc(C)cc4)o3)nc2C#N)cc1 -12.2%, CCCOc1ccc(C(=O)NCC2OCCc3ccccc32)cc1 (configuration not stated) -14.4%, Cc1ccc(NC(=O)c2c(C)nc3sc(C(=O)Nc4ccc(F)cc4)c(N)c3c2-c2ccc(C)o2)c(C)c1 -13.5%, CCc1ccc(CNC(=O)c2cc3ccccn3n2)cc1 -20.2%, CCOC(=O)C1CCCN(C(=O)Cn2ncc3c(C)n(Cc4ccccc4Cl)c(C)c3c2=O)C1 (configuration not stated) -1.43%, CCCc1nc2ccccc2n1CC(O)COc1ccc(C(=O)OC)cc1 (configuration not stated) -30.7%, COc1ccc(C(=O)Nc2ccc3oc(-c4ccc(F)cc4Cl)nc3c2)cc1 9.19%, COc1ccc(-n2c(SCC(=O)N3CCc4ccccc43)nc3c([nH]c4ccccc43)c2=O)cc1 -18.5%, COc1ccccc1CNc1cc(C)nc2nc(-c3ccc(C)cc3)nn12 -25.4%, COc1ccc(-c2nc(C)c(CCNC(=O)c3cccs3)s2)cc1OC -24.9%, CC(C)(C)OC(=O)N1CCC(c2c(C(=O)N3CCN(c4ccccn4)CC3)cnn2-c2ccccc2)CC1 -7.25%, Cc1ccc2nc(NC(=O)CSc3nccn3-c3ccc(Cl)cc3)sc2c1 -16%, CCN(CCCc1ccccc1)CCCc1ccccc1 -19.4%, O=C(CSc1nnc(-c2ccccc2F)o1)Nc1cccc(C(F)(F)F)c1 -10%, O=C(Nc1ccc(Cl)cc1F)c1cnc2sc(N3CCOCC3)nn2c1=O -13.4%, CCC1CCCCN1S(=O)(=O)c1ccc(C(=O)Nc2sc3c(c2C(N)=O)CCC3)cc1 (configuration not stated) -32.8%
